Assay results: article PMC4336329 (PLoS ONE, 2015)
The whole screen tested about 310,000 compounds, of which about 14,000 (4.5%) showed an effect of 50% or more. The effect is printed as a negative number. Some of the results follow.

Molecular target: human ether-à-go-go-related gene (hERG) potassium channel (human, UniProt Q12809)
Assay: primary screen, population patch clamp on CHO cells stably expressing hERG
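Further: peak tail current of the secondary pulse compared with the same well before compound.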

Chain of human ether-à-go-go-related gene (hERG) potassium channel (Q12809 whole entry, looked up): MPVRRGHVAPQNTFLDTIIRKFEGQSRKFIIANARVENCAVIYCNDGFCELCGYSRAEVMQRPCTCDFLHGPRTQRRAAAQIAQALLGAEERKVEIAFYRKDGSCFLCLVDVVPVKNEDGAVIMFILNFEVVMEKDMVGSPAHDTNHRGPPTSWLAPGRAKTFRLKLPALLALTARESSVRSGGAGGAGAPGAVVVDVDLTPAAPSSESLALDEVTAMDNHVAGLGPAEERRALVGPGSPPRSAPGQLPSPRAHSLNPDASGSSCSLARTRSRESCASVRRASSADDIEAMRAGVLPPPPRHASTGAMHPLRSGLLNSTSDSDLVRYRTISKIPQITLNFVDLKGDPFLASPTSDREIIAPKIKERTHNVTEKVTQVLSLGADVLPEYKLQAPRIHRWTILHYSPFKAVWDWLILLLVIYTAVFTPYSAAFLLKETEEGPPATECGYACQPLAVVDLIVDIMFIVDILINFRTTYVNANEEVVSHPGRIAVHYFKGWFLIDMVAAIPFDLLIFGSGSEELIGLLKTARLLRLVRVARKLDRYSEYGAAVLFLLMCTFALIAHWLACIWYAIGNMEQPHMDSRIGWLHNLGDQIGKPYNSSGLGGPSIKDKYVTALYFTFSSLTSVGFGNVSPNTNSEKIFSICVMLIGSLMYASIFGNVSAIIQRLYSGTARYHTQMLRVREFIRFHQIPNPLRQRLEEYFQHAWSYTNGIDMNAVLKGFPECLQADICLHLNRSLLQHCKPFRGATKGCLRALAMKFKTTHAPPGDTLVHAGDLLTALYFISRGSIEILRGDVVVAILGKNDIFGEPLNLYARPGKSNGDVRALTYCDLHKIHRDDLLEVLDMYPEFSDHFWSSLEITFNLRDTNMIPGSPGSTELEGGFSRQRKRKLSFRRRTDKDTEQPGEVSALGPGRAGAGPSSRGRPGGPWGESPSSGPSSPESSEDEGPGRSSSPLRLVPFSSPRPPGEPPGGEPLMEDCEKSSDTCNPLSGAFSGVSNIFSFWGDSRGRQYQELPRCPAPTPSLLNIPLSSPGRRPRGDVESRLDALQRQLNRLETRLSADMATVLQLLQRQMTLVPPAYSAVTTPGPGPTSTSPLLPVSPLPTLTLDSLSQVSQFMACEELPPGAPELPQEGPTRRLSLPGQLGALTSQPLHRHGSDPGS

| SMILES | hERG current change (%, negative = inhibition) at 10uM [%] |
| --- | --- |
| CCOC(=O)c1ccc(NC(=O)c2nc[nH]c2C(=O)N[C@@H](CC(C)C)C(=O)OCc2ccccc2)cc1 | -2.77 |
| O=CNCc1nc2ccccc2n1CCc1ccccc1 | 10 |
| COc1ccc(OC)c(NC(=O)CN(Cc2ccccc2)S(C)(=O)=O)c1 | 25.9 |
| COc1ccc(NC(=S)c2ccc(N(C)C)cc2)cc1 | -2.75 |
| CN(C)CC1CSCCC1(O)c1ccc(Cl)cc1.Cl (stereo not drawn) | 1.69 |
| O=C(NCCc1csc(-c2cccnc2)n1)c1ccc(Cl)cc1 | -25.5 |
| Cn1cc(/C=N/NC(=O)c2cc3cc(Br)ccc3o2)c2ccccc21 | 9.06 |
| Cc1cc(C)n(-c2nc(-n3nc(C)cc3C)c3c4c(sc3n2)COC(C)(C)C4)n1 | -2.71 |
| COc1ccccc1NC(=O)CSc1nc(O)cc(=O)n1-c1ccccc1OC | 9.9 |
| Cn1c(/C(C#N)=C(\O)COc2ccc3ccccc3c2)nc2ccccc21 | 14.5 |
| CCCc1n[nH]c2c1C(=O)CC(C)(C)C2 | 8.95 |
| CC1CCCCN1CCNC(=O)CC1Oc2ccccc2NC1=O (stereo not drawn) | -3.18 |
| Cc1ccc(NC(=O)CNCCCN2CCOCC2)cc1S(=O)(=O)N1CCCCC1.O=C(O)C(=O)O | -12.5 |
| CCN(CC)C(=O)COc1c(-c2ccco2)oc2ccccc2c1=O | -7.02 |
| CCCCN(C)CCOc1ccccc1OCC.O=C(O)C(=O)O | -25.3 |
| Cc1ccc(-c2cc(C(F)(F)F)n3nc(C(=O)Nc4c(C)n(C)n(-c5ccccc5)c4=O)cc3n2)cc1 | -14.3 |
| CCOc1ccc(N(C)S(=O)(=O)c2ccc(C)c(C(=O)Nc3nnc(C4CC4)s3)c2)cc1 | 0.279 |
| Cc1ccc(-c2nnc(CN3CCCCC3C)o2)cc1 (stereo not drawn) | -3.98 |
| C/C(=N\NC(=O)c1cccs1)c1ccc2c(c1)OCO2 | 12.1 |
| CCOC(=O)CC1C(=O)NCCN1C(=S)NC(=O)c1ccccc1OC (stereo not drawn) | 20.9 |
| CN(Cc1ccccc1)C(=O)NC1CCCCC1 | -13.6 |
| O=C(CN1C(=O)NC2(CCCc3ccccc32)C1=O)c1ccc(Br)cc1 (stereo not drawn) | -20.4 |
| COC(=O)CSc1nc(NCC(C)C)nc(N2CCOCC2)n1 | -4.48 |

| SMILES | hERG current change (%, negative = inhibition) at 10uM [%] |
| --- | --- |
| COc1ccc2nc(NC(=O)CSc3nccc(C)n3)sc2c1 | -48.8 |
| O=C(CN1CCN(Cc2ccccc2Cl)C1=O)NC1CCCCCC1 | -3.06 |
| CC(=O)c1ccc(N(C(=O)Cn2nnc3ccccc32)C(C(=O)NCc2ccccc2)c2ccccn2)cc1 (stereo not drawn) | -73.2 |
| COCCNC(=O)C1(S(=O)(=O)c2ccccc2)CC=CC1 | 3.03 |
| CCOC(=O)c1ccc(NC(=O)CC2OCCN(CC)C2=O)cc1 (stereo not drawn) | -11.8 |
| Cc1ccc(SCC(=O)Nc2ccc(S(=O)(=O)Nc3ncccn3)cc2)cc1 | 31.4 |
| CCOC(=O)CCCNC(=O)COc1ccccc1C#N | 22 |
| Cc1cccc(N(C(=O)c2snc(C(N)=O)c2N)C(C(=O)NCC2CCCO2)c2ccc(N(C)C)cc2)c1 (stereo not drawn) | 22.9 |
| CC(C)(C)c1ccc(NC(=O)COC(=O)CCc2nc3ccccc3c(=O)[nH]2)cc1 | -42.8 |
| O=C(c1cccnc1Cl)N1CCOCC1 | 18.6 |
| C=C(C)COc1ccc(-c2nc(N)ncc2Oc2ccccc2OCC)c(O)c1 | 17.3 |
| Cc1ccc(-c2cc(C(F)(F)F)n3ncc(C(=O)N4CCCc5ccccc54)c3n2)cc1 | -0.405 |
| CN(Cc1cccs1)S(=O)(=O)c1ccc(Cl)cc1F | -12.5 |
| Cc1c(C)c2ccc(OCC(=O)Nc3cccnc3)c(C)c2oc1=O | 3.99 |
| CNC(=O)COC(=O)c1cc2c(C)nn(-c3ccc(F)cc3)c2s1 | -16.1 |
| Oc1ccc(-c2nnc(SCC3CCCCC3)o2)cc1 | -11.2 |
| O=C1C2C3CCCC3=C3CCCC3C2C(=O)N1c1cccc(Cl)c1 (stereo not drawn) | 8.79 |
| CC(=O)Nc1ccccc1C(=O)C(=O)Nc1cccc(C(=O)NCC2CCCO2)c1 (stereo not drawn) | 8.98 |
| CCOc1ccc(OCc2ccc(C(=O)Nc3cccnc3)cc2)cc1 | 17.7 |
| Cc1ccccc1NC(=O)CCN1CCCC1.Cl | 5.09 |
| O=C(Nc1cccc2nsnc12)c1cccnc1 | 7.77 |
| CC(C)n1nccc1N(Cc1ccc(Cl)cc1)S(=O)(=O)c1ccccc1 | -12 |
